# Test results taken from PubChem BioAssay AID686978 (National Center for Advancing Translational Sciences (NCATS), 2013).
# The whole screen tested about 420,000 compounds, of which about 64,000 (15%) were called active. Inconclusive means that the source gave no clear call. Such entries were picked first, then a sample of the others. The call rests on the fitted dose curve; in most records, active means well fitted inhibition curve with a large enough effect; inconclusive means small, poorly fitted or top-dose-only effect; inactive means flat fitted curve, though single readings scatter. No potency is given beside an inconclusive call; the fits are too rough.
# Assay: qHTS for Inhibitors of human tyrosyl-DNA phosphodiesterase 1 (TDP1): qHTS in cells in absence of CPT; further: nearly all actives have a fitted effect of over 55% in size
# Settings: DT40 Tdp1-/- hTDP1 cells, no CPT, ATP luminescence, 48 h; activity change, negative = growth inhibition: at 46.2 µM (top of the series) unless noted
# In short: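 A cellular qHTS used chicken DT40 cells lacking endogenous Tdp1 but carrying stably transfected human TDP1. Compounds were applied without camptothecin, and cell growth kinetics were judged by ATP-dependent luminescence after ≥48 hr.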
# On the % scale 0 is the no-effect control and ±100 the full control effect; potency means the concentration at half of the fitted maximal effect; tags describe the fitted curve by direction and shape.
SMILES,"activity change, negative = growth inhibition",Potency
CC1(C)CC(=O)C(C=NCCN2CCN(C(=O)C34CC5CC(CC(C5)C3)C4)CC2)=C(O)C1,inconclusive: -30.7% [inhibitor],–
Cc1cc(NC(=O)/C(C#N)=C/c2ccc(-c3cccc(C(F)(F)F)c3)o2)n(-c2ccccc2)n1,–,"inconclusive [inhibitor, single point]"
Cc1ccc(NC(=O)C(Nc2cccc(C)c2)c2ccccc2)cc1 (stereo not drawn),–,active: 18.4 µM
C/C(O)=C\c1nc(=O)c2c(C)cc(C)nc2n1-c1ccccc1,–,inactive
Cc1cnc(-n2ncc(C(=O)N(C)CC3CCCN(C)C3)c2C2CC2)nc1-c1cccs1 (stereo not drawn),–,inactive
COc1cccc(NC(=O)c2sc3nc(C)c(C(=O)Nc4ccc(C)cc4C)c(-c4ccc(Br)cc4)c3c2N)c1,–,inactive
COC(=O)N/N=C/c1ccc(-c2cccc(Cl)c2)o1,inconclusive: -34.9% [inhibitor],–
CC(=O)NCCNC(=O)C1CCCCN1S(=O)(=O)c1ccccc1 (stereo not drawn),–,"inconclusive [inhibitor, single point]"
CCOC(=O)[C@H]1[C@H]2COc3ccc(Br)cc3[C@H]2N2C(=O)CN(CCc3c[nH]c4ccccc34)C(=O)[C@@]12C,–,"inconclusive [inhibitor, single point]"
Cc1cc(Cl)ccc1NC(=O)C1CCN(S(=O)(=O)c2ccc3[nH]c(=O)ccc3c2)CC1,–,inactive
Cc1noc(C)c1S(=O)(=O)N1CCC(C(=O)N2CCN(Cc3ccc4c(c3)OCO4)CC2)CC1,–,"inconclusive [inhibitor, partial curve]"
COCCNc1c2c(nc3ccccc13)CCC2,–,"inconclusive [inhibitor, single point]"
COc1ccc(N2CCN(C(=O)c3cc4c(=O)n(Cc5cccs5)ccc4nc3C)CC2)cc1,–,active: 25.9 µM
CN1CCN(C(=O)CNC(=O)C23CC4CC(CC(C4)C2)C3)CC1,–,inactive
c1ccc2c(-c3nc4ncccc4o3)cccc2c1,–,"inconclusive [inhibitor, partial curve, poor fit]"
Cc1ccc(CCNC(=O)CCSCc2ccccc2F)cc1,–,inactive
Nc1cc2c(cc1Cl)-c1ccc(Cl)cc1C2=O,–,inactive
COc1ccccc1/C=C/C(=O)NCC(=O)N/N=C/c1ccccc1[N+](=O)[O-],–,"inconclusive [inhibitor, single point]"
COC(=O)Cc1ccc(OC2(C)CCN(Cc3csc4ccccc34)C2)cc1 (stereo not drawn),–,"inconclusive [inhibitor, single point]"
COC1(c2cc(-c3ccccc3)nc(N)n2)CCCCC1,–,"inconclusive [inhibitor, partial curve]"
COc1ccc(OC)c(N(CC(=O)NCC2CCCO2)S(=O)(=O)c2ccccc2)c1 (stereo not drawn),–,"inconclusive [inhibitor, single point]"
Cc1ccc(NC(=S)NCC(C)CSc2ccc(Cl)cc2)cc1 (stereo not drawn),–,"inconclusive [inhibitor, single point]"

SMILES,"activity change, negative = growth inhibition",Potency
COc1ccc(Oc2ccc(-c3ccn[nH]3)cc2)cc1,–,inactive
O=S(=O)(Nc1nc2ccccc2nc1-[n+]1cccc(N=C([O-])c2ccc(Cl)cc2)c1)c1ccccc1,–,"inconclusive [inhibitor, single point]"
Cc1ccc(C(C(=O)NC2CCCC2)N(Cc2ccccc2)C(=O)c2csnn2)o1 (stereo not drawn),–,"inconclusive [inhibitor, single point]"
O=[N+]([O-])c1ccccc1Nc1ccccc1[N+](=O)[O-],–,inactive
COc1cccc(NC(=O)[C@H](CC(C)C)NC(=O)N2CCn3c2nc2ccccc23)c1,–,"inconclusive [inhibitor, single point]"
COc1ccccc1-c1nnc(NC(=O)c2ccc3c(c2)OCO3)s1,–,active: 2.06 µM
COc1ccc(Cl)cc1C(=O)NNC(=S)NC(=O)c1ccc(F)c(F)c1,–,"inconclusive [inhibitor, full curve]"
C[C@@H]1CN([C@H](C)CO)S(=O)(=O)c2ccc(Br)cc2O[C@H]1CN(C)C(=O)Cc1ccccn1,–,"inconclusive [inhibitor, single point]"
CCOC(=O)C(NC(=O)c1ccccc1Cl)(Nc1sc2c(c1C(N)=O)CCC2)C(F)(F)F (stereo not drawn),–,"inconclusive [inhibitor, single point]"
COc1ccccc1OCc1nc(-c2ccc([N+](=O)[O-])cc2)no1,–,"inconclusive [inhibitor, single point]"
COc1cc2c(cc1OC)C(C)N(C(=O)c1cc3c(s1)-c1c(C)cccc1OC3)CC2 (stereo not drawn),–,active: 16.4 µM
CCOC(=O)c1c(C)[nH]c(CCC(=O)Nc2ccc(N(CC)CC)cc2C)c1C,–,"inconclusive [inhibitor, partial curve, poor fit]"
CC(Oc1ccc2c3c(c(=O)oc2c1)CCCC3)C(=O)NCC(O)c1ccccc1 (stereo not drawn),–,"inconclusive [inhibitor, single point]"
COc1ccc2cc(C#CC3=CC(=O)C[C@H](c4ccc(F)cc4)C3)ccc2c1,–,"inconclusive [inhibitor, single point]"
O=C(N=C1N=C2C=CC=CN2Cc2ccccc21)c1ccc(S(=O)(=O)N2CCOCC2)cc1,–,"inconclusive [inhibitor, full curve]"
Cc1cc(C)nc(NC(=S)Nc2ccc(F)cc2F)c1,–,inactive
O=C(CN1CCN(S(=O)(=O)c2cc(Cl)ccc2Cl)CC1)Nc1ccc2c(c1)OCCO2,–,"inconclusive [inhibitor, partial curve]"
O=C(N/N=C/c1sc2ccccc2c1O)c1ccccc1,–,active: 0.651 µM
O=C(/C=C(\O)c1ccc(Cl)cc1)C(=O)NNC(=O)C(O)(c1ccccc1)c1ccccc1,–,"inconclusive [inhibitor, single point]"
Cc1cccn2c(CN(C)CC3Cc4ccccc4O3)c(C(=O)N3CCCCC3)nc12 (stereo not drawn),–,inactive
COc1ccc(/C=C/C(=O)c2c(O)c(OC)c3occc3c2OC)cc1OC,–,active: 10 µM
